Some of the results follow.
Target: T1, OsWOX13 (Oryza sativa, UniProt Q5QMM3 1-267)
T1 sequence: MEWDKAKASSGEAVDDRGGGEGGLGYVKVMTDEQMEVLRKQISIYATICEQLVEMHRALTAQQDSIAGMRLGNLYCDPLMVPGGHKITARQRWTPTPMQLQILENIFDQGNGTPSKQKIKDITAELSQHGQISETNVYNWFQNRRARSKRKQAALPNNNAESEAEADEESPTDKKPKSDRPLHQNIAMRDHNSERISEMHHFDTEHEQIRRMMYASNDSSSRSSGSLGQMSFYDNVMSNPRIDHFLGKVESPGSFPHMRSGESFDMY
Experiment: protein-binding microarray (RPBM); PBS, 2% BSA, 51.3 ng/ul salmon testes DNA, 50 uM zinc acetate, 200 nM TF, 25 C, 1 h; high values mean tight binding
Settings: protein: recombinant; tags: N-terminal polyhistidine and DsRed monomer fusion (pET32a); label: CyDye5-dUTP incorporated in the synthesized complementary strand; 3' TTTTT single-stranded linker to array surface; dsDNA, one strand shown
Summary of the method: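 Using Ni–NTA, transcription factors fused N-terminally to polyhistidine and DsRed were purified after expression in E. coli BL21-CodonPlus. These were incubated at 200 nM with a blocked, double-stranded custom Agilent array for 1 h at 25 °C in a buffer containing 50 µM zinc acetate, and the array was washed. The binding signal is per-feature fluorescence intensity (arbitrary units) on an Axon 4000B scanner.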

Sequence | binding signal
TATCATCAATCCGCTAATTAACTGACAACGCATATTGGAGCGGAGTCACCTAGTGCAG | 29400 fluorescence intensity (a.u.)
ACATAGATTTGGTCCTGACATTAGTTAGAATCTTCAGATTCGGAGTCACCTAGTGCAG | 4000 fluorescence intensity (a.u.)
CCATGACCCATCAATCCATCATCCCTTTCATCTCTCATCTCGGAGTCACCTAGTGCAG | 3420 fluorescence intensity (a.u.)
CTGAATTTCAATTAAAAGGAAGTTGGAGTATAGGGACTTTCGGAGTCACCTAGTGCAG | 6510 fluorescence intensity (a.u.)
TAAAACATGATTTGAAAAGTTTTGTTAAAATGAAGGGTAACGGAGTCACCTAGTGCAG | 6100 fluorescence intensity (a.u.)
TATTTAAATTGGATAATTTCTTATGGGTAGATTTAACTCACGGAGTCACCTAGTGCAG | 27000 fluorescence intensity (a.u.)
CCTCAAGGACAAATGATTGATTTACCTATTCAAAGCAATTCGGAGTCACCTAGTGCAG | 30500 fluorescence intensity (a.u.)
TGAATTACTCAATTGAATTGGTGTTATGTAATAAACTGCTCGGAGTCACCTAGTGCAG | 5970 fluorescence intensity (a.u.)
TGAAAGAAGAGATGATTGGGAAACACCATTAATAGGGTGGCGGAGTCACCTAGTGCAG | 10500 fluorescence intensity (a.u.)
TCAGAGTGGCAATCAGTAGGTCGTCCCAGGGCCAGCGCCGCGGAGTCACCTAGTGCAG | 21900 fluorescence intensity (a.u.)
AGTAACATCAATTTTATACGATTGATCTTTCTACTTTTCTCGGAGTCACCTAGTGCAG | 18600 fluorescence intensity (a.u.)
TAGTATACACAACCAATCATCGCGATCCGCCCTCGCAAACCGGAGTCACCTAGTGCAG | 9460 fluorescence intensity (a.u.)
CTCTCTTAATTTATCGGCAATTCGGCAGAGCTATGAGGCCCGGAGTCACCTAGTGCAG | 18900 fluorescence intensity (a.u.)
CCGTTGATGAGACAAACCAAACAGTAGCGTGCAGGGCATCCGGAGTCACCTAGTGCAG | 11700 fluorescence intensity (a.u.)
GGTCAATCAAATACAGATTCAAAGAGGCACAGATGTGGATCGGAGTCACCTAGTGCAG | 16200 fluorescence intensity (a.u.)
TCTAATTTCAACTAAACTTACACATACAAACAGGCCCTTACGGAGTCACCTAGTGCAG | 7140 fluorescence intensity (a.u.)
ATGATTAATACTTAATTAATTATGTGCGCTCATGGATCACCGGAGTCACCTAGTGCAG | 56400 fluorescence intensity (a.u.)
ACCTAACATCTAATTATATAGTTACCATCGTACAACGTTACGGAGTCACCTAGTGCAG | 13800 fluorescence intensity (a.u.)
TTAATGGCCCATCAATCATTCGGTGTATTATGCAAGAGCGCGGAGTCACCTAGTGCAG | 9750 fluorescence intensity (a.u.)
TTTTAGATGATGTGACTTAATGCATATAAAACTTTTGGTCCGGAGTCACCTAGTGCAG | 6460 fluorescence intensity (a.u.)
ACAATTTAAGCATGATTATGATCAAAGCTTAAATGAGAGGCGGAGTCACCTAGTGCAG | 12800 fluorescence intensity (a.u.)

Sequence | binding signal
TGATATATGATTGTAGAACTTAAAAGTGTACTAATGTGGTCGGAGTCACCTAGTGCAG | 14200 fluorescence intensity (a.u.)
TTGTTAACACGCTTAATTTTAAAGCTGTTAGCATGTTAAACGGAGTCACCTAGTGCAG | 5010 fluorescence intensity (a.u.)
CGCAAAATCTAATTGATGCTATGTTATCAATTTGACAACACGGAGTCACCTAGTGCAG | 19800 fluorescence intensity (a.u.)
TTTTCCTATCATTTGATTTATTGTTAAATATACTTTTATGCGGAGTCACCTAGTGCAG | 9190 fluorescence intensity (a.u.)
ATAATGCATGTTAATTTTGTGCGTACTATCATAGCTTCAGCGGAGTCACCTAGTGCAG | 5810 fluorescence intensity (a.u.)
TGGTACTAATTATTTTGTAAAATATGTTGGGAGCAAGGAACGGAGTCACCTAGTGCAG | 8320 fluorescence intensity (a.u.)
ACTCGTATGATTAGGAATGGGCTTGGAGCCTTGGAGTGTCCGGAGTCACCTAGTGCAG | 15100 fluorescence intensity (a.u.)
TATCAATCCGAGATGGACAACAAATCTGTATAATCCTAAGCGGAGTCACCTAGTGCAG | 4740 fluorescence intensity (a.u.)
GAAAACTGAATATTGATGATATAGAGATCAGTTCTAGATTCGGAGTCACCTAGTGCAG | 13300 fluorescence intensity (a.u.)
GATAAATTACGATAATACCCCTATACGAATTATTATCTCTCGGAGTCACCTAGTGCAG | 12900 fluorescence intensity (a.u.)
ATAGCTATATCAATCTAGAATTGGATTAGATATATCTCGACGGAGTCACCTAGTGCAG | 6040 fluorescence intensity (a.u.)
TAAACTGGTTATCAATTAGTAGTTGCTACTCCGAACAACACGGAGTCACCTAGTGCAG | 8720 fluorescence intensity (a.u.)
TGTGATGAATTGAGCGAACCAGCAGGGCTTCGCCGCTCCCCGGAGTCACCTAGTGCAG | 5470 fluorescence intensity (a.u.)
ACGGTCTATCCAATCAACAATTATCCTAATTATCCTAACACGGAGTCACCTAGTGCAG | 13900 fluorescence intensity (a.u.)
AGATTAATTAGGCTCAACCATTTTCTCAATGGTTGATGAGCGGAGTCACCTAGTGCAG | 19100 fluorescence intensity (a.u.)
GTCTCTTTGAAATTGAAATTGGGCCTCATTTAGTCTGTTACGGAGTCACCTAGTGCAG | 3500 fluorescence intensity (a.u.)
AAGATTGGATTCGCTGCAATACCATCACTAAACTCGGCTTCGGAGTCACCTAGTGCAG | 12800 fluorescence intensity (a.u.)
CGAAATTAATCGCGACAATAAATTCAGACAAAACCTTGCTCGGAGTCACCTAGTGCAG | 24700 fluorescence intensity (a.u.)
AAATAATCAAGATAGAATCTGTTAAGTAATTACATCACTACGGAGTCACCTAGTGCAG | 7860 fluorescence intensity (a.u.)
AATAATTTACAGGAAAGACTAAAGAATACTCGGAAAACAACGGAGTCACCTAGTGCAG | 9550 fluorescence intensity (a.u.)
TCAAATTTAATTCAGAGTTACACTAGGTGAACTCACAATACGGAGTCACCTAGTGCAG | 6640 fluorescence intensity (a.u.)
